Data as given in the supplement of paper PMC11417369.
± gives the standard deviation of the averaged measurements. This is one part of the list.

Tested on: PfAP2-I AP2 domain 3 (GST-tagged)
Experiment: gcPBM binding intensity (ln(normalized median fluorescence intensity)); higher = stronger DNA binding
In short: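 DNA-binding domains from P. falciparum, fused to GST and produced in E. coli, were put on an Agilent 4 × 180k double-stranded probe array for 1 h in 1× PBS holding 1% milk, 0.2 mg/ml BSA, 0.5% salmon testes DNA and 0.03% Triton X-100. Probes were primer-extended, 36 bp long and drawn from intergenic genomic regions, with negative controls included. After Alexa488 anti-GST antibody detection and a 488 nm scan, binding intensity was set as the highest Masliner-normalised natural-log median intensity across replicate spots of either probe orientation.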

Row | Sequence | gcPBM binding intensity (ln)
1 | TGAAATGATATATAAACACACATATATAAATATGTA [CACACA_site7616] | 7.18 ± 0.37
2 | AAATATAATTTGCGATGTACACATATATATTTATTT [XGTACX_site1568] | 7.69 ± 0.52
3 | AAGAAAAAAAAAAAAAAAAAAAAAAAAAATTTATGA [TGCATGCA_negctrl_site294] | 7.39 ± 0.2
4 | CAGTTATTTTAATGTGGTACACAATTTTAAAATTAT [XGTACX_site8571] | 8.07 ± 0.099
5 | AATTTTATAAAAAGTAGTACATATCAAACACCTTGA [XGTACX_site2297] | 8.02 ± 0.28
6 | ATATAAAATGAACATAGTACTTTTTATATATTTTAA [XGTACX_site7461] | 7.35 ± 0.37
7 | TACCTATACCTATACACACACACACGGAAATAAATA [CACACA_site6750] | 8.26 ± 0.48
8 | TGACTTTTTTTTTTTTTTTTTTTTTTTTATCTTTTT [CACACA_negctrl_site481] | 7.51 ± 0.29
9 | TTATGATTATAACGTTTTGACATTAGGCATATATAT [CACACA_negctrl_site1396] | 7.68 ± 0.59
10 | TGATGGGACATAAATATTGAGATGATCATAAGATAA [TGCATGCA_negctrl_site276] | 7.61 ± 0.85
11 | TATATCATAAAAAATTGTACATATATATATTATATA [XGTACX_site6726] | 7.63 ± 0.25
12 | AAAGATAATATATGCACACATATAAATATATAAATA [CACACA_site3477] | 9.21 ± 0.35
13 | AAAAAAAAAAAAAGTACACACTTTTGCGTACAAGTA [CACACA_site5672] | 8.09 ± 0.34
14 | TATTTATTATATAAATGTACATAATATATGTATGTC [XGTACX_site2815] | 7.7 ± 0.36
15 | GGATAAGATGTATATACACACAATTTAAAAAAATAA [CACACA_site910] | 7.88 ± 0.71
16 | GTGTAATTTATTGTGTTGCACTTTTTTTTTTTTTTT [GTGCAC_site9644] | 9.37 ± 0.22
17 | AATACAATTTTTAACACACACACAATAATACAGATA [CACACA_site4823] | 8.01 ± 0.33
18 | TTAATATAGGAATATGCACACATATATACATACATA [CACACA_site8432] | 8.78 ± 0.057
19 | AAGATAGACTCATATGCATGCATTCACATACCAACA [TGCATGCA_site179] | 8.19 ± 0.84
20 | TTTAATTTGTTATACACACACAAAAAAAATTATAAA [CACACA_site3937] | 7.8 ± 0.35
21 | ATTCTATATTTAAATGCATGCACTTTCTATTTTTTT [TGCATGCA_site435] | 8.47 ± 0.79
22 | GACACTTTGAAGGGTACATGCAGAAAAAAAAAAAAA [TGCATGCA_site89] | 8.37 ± 0.81

Row | Sequence | gcPBM binding intensity (ln)
23 | TTTTATTTATCTAATTGTACTCATTCTTTTTTGATG [XGTACX_site2876] | 7.76 ± 0.27
24 | GCTAAAAGTATATGCACACACATATAGATGCACATA [CACACA_site6868] | 10 ± 0.14
25 | TTTTAAAAAAAAAAAAAAAAAATTAAAATAATTCAA [TGCATGCA_negctrl_site69] | 6.97 ± 0.47
26 | ATAAAATAATTAATGGGTACATAATTAAATAAAGAG [XGTACX_site3309] | 8.24 ± 0.44
27 | AATGTGCCCACGCGTACACACAAAAAAAGAAAAAAA [CACACA_site2003] | 8.31 ± 0.17
28 | CATACATAGAAACACACACACACACCCACCCACAAA [CACACA_site494] | 8.4 ± 0.65
29 | ATATATATATATCATAGTACACATATGTGTCTCGTG [XGTACX_site774] | 9.14 ± 0.11
30 | TTGTTATAGAAGCATTCACACACACCCATACATACA [CACACA_site8414] | 8.2 ± 0.099
31 | AAGTTAACAATATGAAGTACAAATGAAAAAAAAAAA [XGTACX_site666] | 8.18 ± 0.73
32 | ATATATATTTATTTATGTACGAATAAATTTACGAAT [XGTACX_site5190] | 7.88 ± 0.35
33 | AATATCATTATATAAGTGCATTTTTTAAAAGATAAA [GTGCAC_site9479] | 9.04 ± 0.22
34 | TTAATAGGTCGAAGTAGTACATAAAAATATATATAT [XGTACX_site5960] | 8.87 ± 0.32
35 | TAAACATTGTAAAGGAGTACAAAATTTTTTTTATGA [XGTACX_site7757] | 7.63 ± 0.59
36 | AATAATAAAAAATACACACACATATATATATATTAC [CACACA_site3464] | 7.77 ± 0.47
37 | TTTTTTTTTTTGTATCGTACATTTATAATGTTTATA [XGTACX_site6804] | 7.85 ± 0.76
38 | CATACACAAGAAAATTCACACACACCCATATATATA [CACACA_site9288] | 8.44 ± 0.84
39 | TCTTACAAAAAACAAACAGAGAAAAATATAAGGAAA [XGTACX_negctrl_site520] | 7.76 ± 0.47
40 | AACATACAGAAACACACACACACACCCACACCCACA [CACACA_site493] | 8.2 ± 0.22
41 | TTTTTTTCATATAACACACACACAAAAATAATGTGG [CACACA_site3688] | 8.03 ± 0.33
42 | TAAGGTTCATTAAAGTGTACACATAAATACCGTAAC [XGTACX_site8212] | 8.11 ± 0.32
43 | TGTAATAATTATTGCACGCACACAAAAACCTATAGA [CACACA_site2932] | 10.8 ± 0.88
44 | ATTCTGAATGTTATGCGTACATATTAATCCTATTTA [XGTACX_site1216] | 7.92 ± 0.42
